# According to article PMC13083723 (Patterns, 2026):
# The whole screen tested about 5,400 compounds, of which about 190 (3.5%) showed an effect of 50% or more. The list shows a part of the results.
# System: Vero-E6
# Test: primary screen, phospholipidosis by LipidTOX staining; higher = more effect of the substance
# Conditions: 10 µM
# How it was run: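 Drug-induced phospholipidosis detected with HCS LipidTOX Red reagent in Vero-E6 cells. Compounds tested at 10 μM, with amiodarone (10 μM) as positive control and DMSO (0.1 v/v %) as vehicle.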
row,Compound,result_ITMP
1,C[C@H]1CC[C@@]2(OC1)O[C@H]1C[C@H]3[C@@H]4CC[C@@H]5C[C@@H](O)CC[C@]5(C)[C@H]4CC[C@]3(C)[C@H]1[C@@H]2C,-0.15%
2,NC(=O)N/N=C/c1ccc(Oc2ccc(F)cc2)cc1,-8.28%
3,O=C(O)C[C@H]1CC[C@H](c2ccc(-c3ccc(Nc4ccc(C(F)(F)F)nc4)cn3)cc2)CC1,1.52%
4,CNC(=O)[C@@H](NC(=O)[C@H](CC(C)C)[C@H](O)C(=O)NO)C(C)(C)C,-6.67%
5,COc1cc(CNC(=O)CCCC/C=C/C(C)C)ccc1O,-0.3%
6,Clc1ccc(C2(c3ccc(-c4cn[nH]c4)cc3)CCNCC2)cc1,96.9%
7,O=C(NCCCN1CCOCC1)c1ccc(Cl)cc1,-4.05%
8,COc1ccc(-c2cc(=O)c3c(O)c(OC)c(O)cc3o2)cc1OC,-1.14%
9,O=C(O)c1c2ccccc2cc2ccccc12,-1.81%
10,Cc1cc(Oc2ccc3nc(COc4ccc(CC5SC(=O)NC5=O)cc4)n(C)c3c2)cc(C)c1N (centres unmarked),-0.04%
11,C=C[C@](C)(O)CC[C@@H]1[C@@]2(C)CCCC(C)(C)[C@@H]2CC[C@@]1(C)O,-0.29%
12,C=CCN.ClCC1CO1 (centres unmarked),-4.42%
13,CC1(C)CN(C(=O)c2ccc(-c3cccc4nc(NC(=O)C5CC5)nn34)cc2)C1,-2.5%
14,FC(F)(F)c1cccc(C2=CCN(CCc3ccc4ccccc4c3)CC2)c1,-1.88%
15,Cc1cc(C)c(S(=O)(=O)Nc2cccc(C(F)(F)F)c2)c(C)c1,-1.98%
16,CCN(CC)CCOCCOC(=O)C(CC)(CC)c1ccccc1,39%
17,CCCOc1ccc(C(=O)OCCN(CC)CC)cc1N,9%
18,Nc1nc2c(ncn2CCC(CO)CO)c(=O)[nH]1,3.08%
19,CCOC(=O)[C@H](Cc1ccccc1)NC(=O)c1cc(Cl)c(OCCN2CCN(C)CC2)c(Cl)c1O,-2.45%

row,Compound,result_ITMP
1,COC(=O)Nc1ccc2[nH]cc(CCNC(C)=O)c2c1,-2.02%
2,Nc1ncnc2c1c(COc1cccc(Cl)c1)nn2C1CCOCC1,-4.63%
3,CC(C)[N+]1(C)C2CC[C@H]1C[C@@H](OC(=O)C(CO)c1ccccc1)C2 (some centres unmarked),-3.79%
4,CC[C@@H](CO)NCCN[C@@H](CC)CO,-1.3%
5,CCN(CC)CCCCNc1ncc2cc(-c3cc(OC)cc(OC)c3)c(NC(=O)NC(C)(C)C)nc2n1,90.1%
6,CC(CN(C)C)C(C)(O)Cc1ccc(Cl)cc1 (centres unmarked),8.83%
7,C=CCN1CC[C@]23CCCC[C@H]2[C@H]1Cc1ccc(O)cc13,0.64%
8,C[C@]1(Cn2ccnn2)[C@H](C(=O)O)N2C(=O)C[C@H]2S1(=O)=O,-1.32%
9,O=c1ccc2[nH]cc(C3=CCNCC3)c2[nH]1,-1.73%
10,CC(=O)OCC(=O)[C@@]1(OC(C)=O)[C@@H](C)C[C@H]2[C@@H]3C[C@H](F)C4=CC(=O)C=C[C@]4(C)[C@@]3(F)[C@@H](O)C[C@@]21C,-3.46%
11,C#C[C@]1(OC(C)=O)CCC2C3CCC4=C/C(=N/O)CCC4C3CC[C@@]21CC (some centres unmarked),1.9%
12,CC(C)C[C@H](NC(=O)CNC(=O)c1cc(Cl)ccc1Cl)B1OC(=O)C(CC(=O)O)(CC(=O)O)O1,-2.06%
13,O=C(NCCN1CCCCC1)c1ccc(I)cc1,12.3%
14,CC1(C)Oc2ccc(C#N)cc2[C@@H](N2CCCC2=O)[C@@H]1O.CC1(C)Oc2ccc(C#N)cc2[C@H](N2CCCC2=O)[C@H]1O,-2.09%
15,CC1=C(/C=C/C(=C/C=C/C(C)=C/C(=O)O)c2ccc(C)cc2)C(C)(C)CCC1,-5.87%
16,CC(=O)Nc1cc([As](=O)(O)O)ccc1O,-8.7%
17,C=CCOC(Cn1ccnc1)c1ccc(Cl)cc1Cl (centres unmarked),14.2%
18,Cc1cc2c(C(C)C)c(O)c(O)c(C=O)c2c(O)c1-c1c(C)cc2c(C(C)C)c(O)c(O)c(C=O)c2c1O,-13.8%
19,C[N+]1(C)C2CC[C@H]1C[C@@H](OC(=O)C(O)c1ccccc1)C2 (some centres unmarked),-3.36%

row,Compound,result_ITMP
1,CCC[C@@]1(CCc2ccccc2)CC(O)=C([C@H](CC)c2cccc(NS(=O)(=O)c3ccc(C(F)(F)F)cn3)c2)C(=O)O1,-0.63%
2,CCCCC(=O)NCCc1c(Cc2ccccc2)[nH]c2ccccc12,-4.15%
3,O=[N+]([O-])O[C@@H]1CO[C@H]2[C@@H]1OC[C@@H]2O,-9.17%
4,O=C(O)/C=C/CO,-4.68%
5,C[C@@H]1COC(Nc2ccc3ncnc(Nc4ccc(OCc5nccs5)c(Cl)c4)c3c2)=N1,9.37%
6,Cn1cc(-c2ccc3c(c2)CCN3C(=O)Cc2cccc(C(F)(F)F)c2)c2c(N)ncnc21,-0.76%
7,Oc1cccc(-c2nc(N3CCOCC3)c3oc4ncccc4c3n2)c1,-1.98%
8,O=c1[nH]c2ccccc2n1C1CCN(CCCC(c2ccc(F)cc2)c2ccc(F)cc2)CC1,28.9%
9,Fc1ccc(-c2c3cccc(C(F)(F)F)c3nn2Cc2ccc(F)cc2Cl)cc1,-0.88%
10,Cc1cc(SCc2sc(-c3ccc(C(F)(F)F)cc3)nc2C)ccc1OCC(=O)O,0.61%
11,CC(=O)OCC(=O)[C@H]1CC[C@H]2[C@@H]3CCC4=CC(=O)CC[C@]4(C)[C@H]3CC[C@]12C,1.95%
12,Cc1cc(C(=O)Nc2cccc(C(=O)Nc3cccc(C(F)(F)F)c3)c2)on1,-3.16%
13,N#C/C(=C\c1ccc(O)c(O)c1)C(=O)NCc1ccccc1,-0.81%
14,O=C(/C=C/c1ccccc1)NCCO,-0.62%
15,O=C(O[C@H]1CN2CCC1CC2)N(Cc1cc(F)c(F)c(F)c1)c1cccc(F)c1,71.4%
16,O=C([O-])c1ccccc1Nc1cc(Cl)ccc1C(=O)[O-],-3.54%
17,CC1(C)[C@@H](OC(=O)CCC(=O)O)CC[C@]2(C)[C@H]3C(=O)C=C4[C@@H]5C[C@@](C)(C(=O)O)CC[C@]5(C)CC[C@@]4(C)[C@]3(C)CC[C@@H]12,-2.7%
18,CC[C@H](CO)Nc1nc(NCc2ccc(-c3ccccn3)cc2)c2ncn(C(C)C)c2n1,-3.04%
